Measurements as given in patent US20230272105A1 (Genmab, published 2023).
Each block holds one binder with its values, some of them ahead of it.

Key:
[1] = biological target: T1, Human CD38 expressed on the cell surface (human, UniProt P28907 1-300); assay: cell-based or functional assay
[2] = biological target: T1, Human CD38 expressed on the cell surface; assay: cell-based or functional assay; remark: listed apart in the source
[3] = biological target: T2, recombinant his-tagged extracellular domain of CD38 (hisCD38) (human, UniProt P28907 45-300); assay: BLI (Octet HTX), antibody on anti-human IgG Fc capture sensors, His-CD38 0.78-50 nM, 1:1 model; experiment 1
T2 construct: also called His-tagged soluble human CD38

[4] = biological target: T2, recombinant his-tagged extracellular …; assay: BLI (Octet HTX), antibody on anti-human IgG Fc capture sensors, His-CD38 0.78-50 nM, 1:1 model; experiment 2
[5] = biological target: T2, recombinant his-tagged extracellular …; assay: BLI (Octet HTX), antibody on anti-human IgG Fc capture sensors, His-CD38 0.78-50 nM, 1:1 model; experiment 3
[6] = biological target: T2, recombinant his-tagged extracellular …; assay: BLI (Octet HTX), antibody on anti-human IgG Fc capture sensors, His-CD38 0.78-50 nM, 1:1 model; average of three experiments
[7] = biological target: T2, recombinant his-tagged extracellular …; assay: ligand binding ELISA on coated HIS-CD38; Batch B, 5±3°C, 1 month
[8] = biological target: T2, recombinant his-tagged extracellular …; assay: ligand binding ELISA on coated HIS-CD38; Batch B, 5±3°C, 0 months
[9] = biological target: T2, recombinant his-tagged extracellular …; assay: ligand binding ELISA on coated HIS-CD38; Batch B, 5±3°C, 2 months
[10] = biological target: T2, recombinant his-tagged extracellular …; assay: ligand binding ELISA on coated HIS-CD38; Batch B, 5±3°C, 3 months
[11] = biological target: T2, recombinant his-tagged extracellular …; assay: ligand binding ELISA on coated HIS-CD38; Batch B, ≤ -65°C, 1 month
[12] = biological target: T2, recombinant his-tagged extracellular …; assay: ligand binding ELISA on coated HIS-CD38; Batch B, ≤ -65°C, 0 months
[13] = biological target: T2, recombinant his-tagged extracellular …; assay: ligand binding ELISA on coated HIS-CD38; Batch B, ≤ -65°C, 2 months
[14] = biological target: T2, recombinant his-tagged extracellular …; assay: ligand binding ELISA on coated HIS-CD38; Batch B, ≤ -65°C, 3 months
[15] = biological target: T2, recombinant his-tagged extracellular …; assay: ligand binding ELISA on coated HIS-CD38; Batch A, 5±3°C upright, 3 months
[16] = biological target: T2, recombinant his-tagged extracellular …; assay: ligand binding ELISA on coated HIS-CD38; Batch A, 5±3°C upright, 6 months
[17] = biological target: T2, recombinant his-tagged extracellular …; assay: ligand binding ELISA on coated HIS-CD38; Batch A, 5±3°C inverted, 0 months
[18] = biological target: T2, recombinant his-tagged extracellular …; assay: ligand binding ELISA on coated HIS-CD38; Batch A, 5±3°C inverted, 3 months
[19] = biological target: T2, recombinant his-tagged extracellular …; assay: ligand binding ELISA on coated HIS-CD38; Batch A, 5±3°C inverted, 6 months
[20] = biological target: T2, recombinant his-tagged extracellular …; assay: ligand binding ELISA on coated HIS-CD38; Batch B, 25±2°C/60±5% RH, 1 month
[21] = biological target: T2, recombinant his-tagged extracellular …; assay: ligand binding ELISA on coated HIS-CD38; Batch A, 25±2°C/60±5% RH, 0 months
[22] = biological target: T2, recombinant his-tagged extracellular …; assay: ligand binding ELISA on coated HIS-CD38; Batch A, 25±2°C/60±5% RH, 2 months
[23] = biological target: T2, recombinant his-tagged extracellular …; assay: ligand binding ELISA on coated HIS-CD38; Batch A, 25±2°C/60±5% RH, 3 months
[24] = biological target: T2, recombinant his-tagged extracellular …; assay: ligand binding ELISA on coated HIS-CD38; Batch A, 25±2°C/60±5% RH, 6 months
[25] = biological target: T2, recombinant his-tagged extracellular …; assay: ligand binding ELISA on coated HIS-CD38; Batch B, 25±2°C/60±5% RH, 0 months
[26] = biological target: T2, recombinant his-tagged extracellular …; assay: ligand binding ELISA on coated HIS-CD38; Batch B, 25±2°C/60±5% RH, 2 months
[27] = biological target: T2, recombinant his-tagged extracellular …; assay: ligand binding ELISA on coated HIS-CD38; Batch B, 25±2°C/60±5% RH, 3 months

- CDC percent lysis of Ramos and Daudi cells [1]: ~50%
B1: IgG1-C (antibody)
heavy: QVQLVQSGAEVKKPGSSVKVSCKAFGGTFSSYAISWVRQAPGQGLEWMGRIIRFLGIANYAQKFQGRVTLIADKSTNTAYMELSSLRSEDTAVYYCAGEPGERDPDAVDIWGQGTMVTVSSASTKGPSVFPLAPSSKSTSGGTAALGCLVKDYFPEPVTVSWNSGALTSGVHTFPAVLQSSGLYSLSSVVTVPSSSLGTQTYICNVNHKPSNTKVDKRV[human IgG1 Fc not written out]
light: [about 200 residues not written out]
notes: Human IgG1m(f), kappa, expressed in Expi293F cells; also called CD38 antibody C; CD38 Ab C

- CDC percent lysis of Ramos and Daudi cells [1]: ≤ 100%
- CDC EC50, 697 cells [2]: 0.087 µg/mL
- CDC EC50, AML-193 cells [2]: 0.032 µg/mL
- CDC EC50, DOHH2 cells [2]: 0.115 µg/mL
- CDC EC50, Daudi cells [2]: 0.03 µg/mL
- CDC EC50, HL-60 cells [2]: 0.07 µg/mL
- CDC EC50, JVM-3 cells [2]: 0.11 µg/mL
- CDC EC50, JVM-13 cells [2]: 0.146 µg/mL
- CDC EC50, Jeko-1 cells [2]: 0.108 µg/mL
- CDC EC50, KG-1 cells [2]: 0.104 µg/mL
- CDC EC50, LP-1 cells [2]: 0.02 µg/mL
- CDC EC50, MEGAL cells [2]: 0.17 µg/mL
- CDC EC50, ML-2 cells [2]: 0.023 µg/mL
- CDC EC50, MOLM-13 cells [2]: 0.017 µg/mL
- CDC EC50, NALM-16 cells [2]: 0.022 µg/mL
- CDC EC50, NCI-H929 cells [2]: 0.308 µg/mL
- CDC EC50, Nomo-1 cells [2]: 0.039 µg/mL
- CDC EC50, Oci-AML3 cells [2]: 0.046 µg/mL
- CDC EC50, Oci-Ly18 cells [2]: 0.057 µg/mL
- CDC EC50, Oci-Ly-7 cells [2]: 0.012 µg/mL
- CDC EC50, Oci-Ly-19 cells [2]: 0.031 µg/mL
- CDC EC50, REH cells [2]: 0.039 µg/mL
- CDC EC50, RS4;11 cells [2]: 0.093 µg/mL
- CDC EC50, Raji cells [2]: 0.036 µg/mL
- CDC EC50, Ramos cells [2]: 0.013 µg/mL
- CDC EC50, SU-DHL-4 cells [2]: 0.073 µg/mL
- CDC EC50, THP-1 cells [2]: 0.075 µg/mL
- CDC EC50, U266 cells [2]: 0.052 µg/mL
- CDC EC50, U937 cells [2]: 0.057 µg/mL
- CDC EC50, WSU-DLCL2 cells [2]: 0.345 µg/mL
- CDC EC50, Wien133 cells [2]: 0.015 µg/mL
- CDC EC50, Z-138 cells [2]: 0.106 µg/mL
- CDC EC50, monomac6 cells [2]: 0.093 µg/mL
- Kd [3]: 1 nM
- koff [3]: 0.0004 s⁻¹
- kon [3]: 380000 M⁻¹ s⁻¹
- Kd [4]: 0.95 nM
- koff [4]: 0.00041 s⁻¹
- kon [4]: 430000 M⁻¹ s⁻¹
- Kd [5]: 1.3 nM
- koff [5]: 0.00052 s⁻¹
- kon [5]: 410000 M⁻¹ s⁻¹
- Kd [6]: 1.1 nM
- koff [6]: 0.00044 s⁻¹
- kon [6]: 410000 M⁻¹ s⁻¹
B2: IgG1-C-E430G (antibody)
heavy: QVQLVQSGAEVKKPGSSVKVSCKAFGGTFSSYAISWVRQAPGQGLEWMGRIIRFLGIANYAQKFQGRVTLIADKSTNTAYMELSSLRSEDTAVYYCAGEPGERDPDAVDIWGQGTMVTVSSASTKGPSVFPLAPSSKSTSGGTAALGCLVKDYFPEPVTVSWNSGALTSGVHTFPAVLQSSGLYSLSSVVTVPSSSLGTQTYICNVNHKPSNTKVDKRV[human IgG1 Fc with E430G (EU numbers) not written out]
light: [about 200 residues with changes not written out]
notes: also called E430G mutated C

- ELISA % relative to reference standard [7]: 108%
- ELISA % relative to reference standard [8]: 93%
- ELISA % relative to reference standard [9]: 113%
- ELISA % relative to reference standard [10]: 102%
- ELISA % relative to reference standard [11]: 103%
- ELISA % relative to reference standard [12]: 93%
- ELISA % relative to reference standard [13]: 113%
- ELISA % relative to reference standard [14]: 99%
- ELISA % relative to reference standard [15]: 103%
- ELISA % relative to reference standard [16]: 105%
- ELISA % relative to reference standard [17]: 102%
- ELISA % relative to reference standard [18]: 105%
- ELISA % relative to reference standard [19]: 107%
- Antigen binding % relative to reference standard [20]: 106%
- ELISA % relative to reference standard [21]: 102%
- ELISA % relative to reference standard [22]: 107%
- ELISA % relative to reference standard [23]: 105%
- ELISA % relative to reference standard [24]: 104%
- Antigen binding % relative to reference standard [25]: 93%
- Antigen binding % relative to reference standard [26]: 112%
- Antigen binding % relative to reference standard [27]: 110%
B3: IgG1-C-E430G with a CH comprising SEQ ID NO:46, expressed in CHO cells (formulated, Batch no. A and Batch no. B) (antibody)
heavy: QVQLVQSGAEVKKPGSSVKVSCKAFGGTFSSYAISWVRQAPGQGLEWMGRIIRFLGIANYAQKFQGRVTLIADKSTNTAYMELSSLRSEDTAVYYCAGEPGERDPDAVDIWGQGTMVTVSSASTKGPSVFPLAPSSKSTSGGTAALGCLVKDYFPEPVTVSWNSGALTSGVHTFPAVLQSSGLYSLSSVVTVPSSSLGTQTYICNVNHKPSNTKVDKRV[human IgG1 Fc with E430G (EU numbers) not written out]
light: [about 200 residues with changes not written out]
notes: Formulated at 20 mg/mL in 20 mM histidine, 250 mM sorbitol, 0.04% PS80, pH 6.0; also called HexaBody-CD38
